± gives the standard deviation of the averaged measurements. Growth of baker's yeast expressing single-residue variants of Pneumocystis jirovecii dihydrofolate reductase in 8.8 or 44 µM methotrexate (about 75% and 90% inhibition of the wild type). Selection coefficient per generation; 0 = like wild type, above 0 = less sensitive, below 0 = more sensitive or loss of function. No active / inactive call per row; the paper calls resistant above 0.220 (8.8 µM) or 0.243 (44 µM) together with a significance test. At 44 µM about 15% of codons end with one read or none, so the lowest values are floors (replicate rank correlation 0.74; 0.94 at 8.8 µM).
B1: UniProt A0EPZ9; numbered along this chain (parent)
chain: MDWQKSLTLIVALTLSRGIGLKNDLPWKLKSDMMFFSRVTSGLLVTRSTGQMNVVLMGRKTWESLPAHSRPLKNRINVVISRQEVLDLGGGAYHARSLDDALALLSQIYDSTSKIQLNRVFVIGGGELCKAAMEHSRLNRIIATVIHNEVDCDVFFPIDFRSSQSCLPWRKQDHSVLEAWVGSKVPQGKINENGFIYEFEMWIRDI

Variants of: B1
Test: selection coefficient against synonymous wild-type codons (log2 per generation); higher = faster growth than wild type
Details: with Saccharomyces cerevisiae carrying the variant on a plasmid
Description: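 Pooled growth of yeast carrying single-residue variants of P. jirovecii dihydrofolate reductase (own DFR1 gene intact), two passages at 30 °C, three cultures, sequenced before and after. Codons with under 15 starting reads are left out; codons of one change are averaged.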

| Variant | selection coefficient against synonymous wild-type codons (log2) (methotrexate 8.8 µM) | selection coefficient against synonymous wild-type codons (log2) (methotrexate 44 µM) |
| --- | --- | --- |
| F36L | 0.259 ± 0.039 | 0.31 ± 0.071 |
| F36P | -0.325 ± 0.12 | -0.113 ± 0.14 |
| F36W | 0.105 ± 0.036 | 0.157 ± 0.038 |
| F36H | 0.895 ± 0.044 | 1.19 ± 0.025 |
| M34W | -0.197 ± 0.025 | -0.217 ± 0.11 |
| M34P | 0.575 ± 0.027 | 0.66 ± 0.036 |
| M34D | 0.362 ± 0.011 | 0.341 ± 0.073 |
| M34Q | 0.0809 ± 0.034 | 0.0712 ± 0.054 |
| M34I | 0.0215 ± 0.034 | -0.14 ± 0.15 |
| M34R | -0.0173 ± 0.027 | -0.0477 ± 0.076 |
| M34A | 0.172 ± 0.06 | 0.137 ± 0.081 |
| M34F | -0.21 ± 0.16 | -0.0969 ± 0.11 |
| M34K | 0.0421 ± 0.037 | 0.064 ± 0.036 |
| M34H | -0.0649 ± 0.13 | 0.0271 ± 0.17 |
| M34L | 0.00647 ± 0.057 | 0.000714 ± 0.1 |
| M34G | 0.0225 ± 0.062 | 0.0424 ± 0.055 |
| M34C | -0.165 ± 0.12 | -0.0127 ± 0.061 |
| M34S | 0.00734 ± 0.057 | -0.0271 ± 0.057 |
| M34T | 0.136 ± 0.068 | 0.0611 ± 0.15 |
| M34E | 0.177 ± 0.032 | 0.171 ± 0.084 |
| M34V | -0.0288 ± 0.042 | -0.0946 ± 0.055 |
| D32Q | -0.331 ± 0.085 | -0.135 ± 0.13 |
| D32M | -0.685 ± 0.037 | -0.438 ± 0.0045 |
| D32E | 0.452 ± 0.022 | 0.5 ± 0.036 |

| Variant | selection coefficient against synonymous wild-type codons (log2) (methotrexate 8.8 µM) | selection coefficient against synonymous wild-type codons (log2) (methotrexate 44 µM) |
| --- | --- | --- |
| D32K | -0.547 ± 0.08 | -0.341 ± 0.031 |
| D32V | -0.386 ± 0.24 | -0.129 ± 0.3 |
| D32I | -0.52 ± 0.12 | -0.217 ± 0.17 |
| D32H | -0.511 ± 0.043 | -0.262 ± 0.097 |
| D32F | -0.581 ± 0.053 | -0.224 ± 0.12 |
| D32C | -0.494 ± 0.16 | -0.0999 ± 0.14 |
| D32P | -0.494 ± 0.083 | -0.314 ± 0.036 |
| D32L | -0.492 ± 0.11 | -0.248 ± 0.13 |
| D32T | -0.561 ± 0.1 | -0.356 ± 0.095 |
| D32G | -0.59 ± 0.1 | -0.251 ± 0.074 |
| D32S | -0.522 ± 0.13 | -0.257 ± 0.1 |
| D32A | -0.563 ± 0.062 | -0.319 ± 0.14 |
| D32N | -0.243 ± 0.28 | 0.0154 ± 0.29 |
| D32W | -0.547 ± 0.15 | -0.274 ± 0.019 |
| D32Y | -0.506 ± 0.13 | -0.234 ± 0.15 |
| D32R | -0.658 ± 0.046 | -0.289 ± 0.11 |
| W27Y | 0.112 ± 0.039 | 0.168 ± 0.028 |
| W27K | -0.405 ± 0.17 | -0.181 ± 0.062 |
| W27I | -0.123 ± 0.07 | -0.19 ± 0.15 |
| W27M | 0.0561 ± 0.0064 | 0.0248 ± 0.075 |
| W27H | 0.383 ± 0.028 | 0.412 ± 0.05 |
| W27L | 0.16 ± 0.088 | 0.184 ± 0.088 |
| W27F | -0.206 ± 0.04 | -0.221 ± 0.11 |
| W27E | -0.355 ± 0.065 | -0.224 ± 0.14 |

| Variant | selection coefficient against synonymous wild-type codons (log2) (methotrexate 8.8 µM) | selection coefficient against synonymous wild-type codons (log2) (methotrexate 44 µM) |
| --- | --- | --- |
| W27N | -0.306 ± 0.072 | -0.14 ± 0.082 |
| W27A | 0.0849 ± 0.044 | 0.0545 ± 0.1 |
| W27D | -0.405 ± 0.064 | -0.292 ± 0.088 |
| W27T | 0.0777 ± 0.033 | 0.122 ± 0.065 |
| W27R | -0.185 ± 0.1 | -0.0905 ± 0.12 |
| W27G | 0.0431 ± 0.087 | 0.0832 ± 0.076 |
| W27S | -0.053 ± 0.07 | -0.0394 ± 0.14 |
| W27V | -0.126 ± 0.1 | -0.0201 ± 0.082 |
| W27P | -0.293 ± 0.1 | -0.102 ± 0.09 |
| W27Q | 0.257 ± 0.0067 | 0.254 ± 0.046 |
| W27C | 0.0555 ± 0.027 | 0.122 ± 0.047 |
| K28P | 0.28 ± 0.046 | 0.245 ± 0.058 |
| K28D | -0.0855 ± 0.047 | -0.101 ± 0.24 |
| K28N | -0.12 ± 0.048 | -0.0652 ± 0.016 |
| K28S | -0.0923 ± 0.054 | -0.0769 ± 0.064 |
| K28M | 0.0698 ± 0.033 | -0.0764 ± 0.12 |
| K28H | 0.0117 ± 0.028 | -0.00144 ± 0.015 |
| K28A | 0.0264 ± 0.036 | 0.0548 ± 0.074 |
| K28V | -0.0445 ± 0.07 | -0.056 ± 0.15 |
| K28T | 0.0967 ± 0.022 | -0.0484 ± 0.21 |
| K28R | -0.0121 ± 0.044 | -0.0741 ± 0.12 |
| K28C | -0.108 ± 0.082 | -0.0422 ± 0.061 |
| K28Y | -0.29 ± 0.048 | -0.105 ± 0.1 |
| K28G | -0.0619 ± 0.051 | -0.113 ± 0.14 |

| Variant | selection coefficient against synonymous wild-type codons (log2) (methotrexate 8.8 µM) | selection coefficient against synonymous wild-type codons (log2) (methotrexate 44 µM) |
| --- | --- | --- |
| K28W | -0.168 ± 0.012 | -0.167 ± 0.064 |
| K28Q | 0.037 ± 0.019 | -0.00425 ± 0.082 |
| K28L | 0.0126 ± 0.047 | 0.00166 ± 0.14 |
| K28E | -0.0181 ± 0.036 | -0.0181 ± 0.17 |
| K28I | 0.0358 ± 0.039 | 0.0361 ± 0.01 |
| K28F | -0.0344 ± 0.012 | -0.16 ± 0.1 |
| S31E | 0.129 ± 0.024 | 0.153 ± 0.054 |
| S31L | -0.417 ± 0.086 | -0.275 ± 0.14 |
| S31M | -0.245 ± 0.013 | -0.234 ± 0.13 |
| S31I | -0.504 ± 0.089 | -0.256 ± 0.092 |
| S31A | -0.113 ± 0.045 | -0.17 ± 0.16 |
| S31D | 0.213 ± 0.062 | 0.167 ± 0.081 |
| S31C | -0.218 ± 0.11 | -0.154 ± 0.11 |
| S31K | 0.000538 ± 0.028 | -0.0247 ± 0.079 |
| S31N | 0.12 ± 0.05 | 0.0807 ± 0.11 |
| S31G | -0.188 ± 0.091 | -0.163 ± 0.075 |
| S31W | -0.416 ± 0.12 | -0.311 ± 0.11 |
| S31Q | 0.0873 ± 0.014 | 0.0777 ± 0.02 |
| S31H | 0.109 ± 0.042 | 0.128 ± 0.021 |
| S31Y | -0.237 ± 0.057 | -0.27 ± 0.21 |
| S31F | -0.215 ± 0.035 | -0.187 ± 0.15 |
| S31R | -0.0108 ± 0.045 | -0.0171 ± 0.09 |
| S31P | -0.109 ± 0.06 | -0.138 ± 0.18 |
| S31V | -0.395 ± 0.11 | -0.263 ± 0.098 |

| Variant | selection coefficient against synonymous wild-type codons (log2) (methotrexate 8.8 µM) | selection coefficient against synonymous wild-type codons (log2) (methotrexate 44 µM) |
| --- | --- | --- |
| S31T | -0.0861 ± 0.054 | -0.0912 ± 0.11 |
| F35Q | 0.7204 ± 0.0041 | 0.894 ± 0.013 |
| F35A | 0.47 ± 0.021 | 0.662 ± 0.021 |
| F35V | 0.271 ± 0.015 | 0.293 ± 0.021 |
| F35K | -0.298 ± 0.058 | 0.0879 ± 0.028 |
| F35P | -0.292 ± 0.1 | -0.128 ± 0.13 |
| F35L | 0.386 ± 0.027 | 0.444 ± 0.04 |
| F35W | -0.0347 ± 0.051 | -0.00548 ± 0.052 |
| F35N | 0.866 ± 0.016 | 1.14 ± 0.026 |
| F35H | 0.459 ± 0.044 | 0.473 ± 0.023 |
| F35S | 0.416 ± 0.047 | 0.711 ± 0.048 |
| F35D | -0.28 ± 0.049 | -0.081 ± 0.062 |
| F35C | 0.488 ± 0.023 | 0.564 ± 0.036 |
| F35M | 0.409 ± 0.017 | 0.47 ± 0.027 |
| F35T | 0.613 ± 0.033 | 0.726 ± 0.031 |
| F35E | -0.0721 ± 0.026 | 0.243 ± 0.067 |
| F35Y | 0.227 ± 0.02 | 0.248 ± 0.11 |
| F35I | 0.246 ± 0.063 | 0.247 ± 0.03 |
| F35R | -0.112 ± 0.061 | 0.259 ± 0.039 |
| F35G | -0.0617 ± 0.018 | 0.287 ± 0.028 |
